PubChem BioAssay AID1508642 (National Center for Advancing Translational Sciences (NCATS), 2021)
The whole screen tested about 43,000 compounds, of which about 200 (0.47%) were called active. Another 12% or so got no clear call; they are omitted. The call rests on the fitted dose curve; in most records, active means well fitted cell-killing curve with a large enough effect; inconclusive means small, poorly fitted or top-dose-only effect, or effect the other way; inactive means flat fitted curve, though single readings scatter. The list shows a part of the results.

Assay: Cell viability qHTS assay in S16 Pmp22-F2sN cells; further: nearly all actives have a fitted effect of over 65% in size
Settings: S16 Pmp22-F2sN Schwann cells (luciferase reporters placed in the Pmp22 gene) viability, CellTiter-Glo, 24 h; series mostly up to 57.5 µM; activity change, negative = cytotoxicity: at the top concentration
From the text: Assay Provider: Jim Inglese Ph.D. National Center for Advancing Translational Science, National Institutes of Health, Rockville, MD CMT is a heterogeneous group of neurological disorders that affect approximately 1 in 2,500 people. In particular, the most common form of CMT, CMT1A is genetically linked to the duplication of the PMP22 gene which leads to Schwann cell overexpression, thus manifesting itself as a typical case of dose-sensitive diseases. To identify small molecule compounds that can mediate the expression of PMP22 we developed a phenotypic assay screening strategy by utilizing genome editing techniques to construct Schwann cell lines containing novel reporter technology to monitor the transcriptional or translational regulation of PMP22. For high sensitivity we use a bioluminescent reporter system embedded in the 3' UTR of the PMP22 gene (S16(c9) Pmp22-F2sN) to identify compounds that inhibit gene expression. […] We can further discriminate the effect of all transcriptionally active molecules on PMP22 translation or stability with an assay that incorporates a short NLuc peptide (HiBiT) at the C-terminus of expressed PMP22 (S16(f8) PMP22-HiBiT) allowing alpha complementation and luminescence detection of membrane-associated PMP22 protein. These assays were screened against the NCATS Sytravon Library Collection. Miniaturization of these assays to 1536-well plate format for quantitative high throughput screening (qHTS) yielded rich data sets immediately from the qHTS assay (S16(c9) Pmp22-F2sN), when compared with data from a cell viability assay (Cell TiterGlo) to identify compounds that decreased the output signals through cellular toxicity to streamline the selection process of actives for subsequent characterization using the HiBiT assay (S16(f8) PMP22-HiBiT).
Cell viability assay in S16 Pmp22-F2sN cells PROTOCOL TABLE (format as described by Inglese J, Shamu CE and Guy RK. 2007) SEQUENCE No. (e.g., 1, 2, 3, etc.); […] (e.g., Cells, Incubation, Reagent, etc.); VALUE and DESCRIPTION. 1. Cells. Add 500-1,000 cells in 4 uL in growth media (DMEM High Glucose, No Phenol Red media + 10% heat-inactivated FBS + 1% Pen/Strep supplemented media) per well into Greiner 1536-well white/solid bottom high base, TC-treated plates. 2. Compounds. Library compounds and controls added at 23nL per well, transferred by Pin Tool. 3. Incubation. Incubate plates at 37C, 5% CO2, 95% RH for 24 h. 4. Reagent. Add 3uL CellTiter-Glo per well of Greiner 1536-well plates. 5. Incubation. Incubate plates at room temperature for 15 min., protect from light. 6. Detector. FLuc luminescence measured using CCD-based camera (Viewlux). NOTES (numbers refer to Sequence numbers above; values are from representative experiments) 6. Luminescence Read: Clear filter; Exposure = 1 sec, Gain = High, Speed = Slow, Binning = 2X REFERENCES: 1. Inglese J, Shamu CE and Guy RK, Reporting data from high throughput screening of small molecule libraries, Nature Chemical Biology, 2007, 3(8): 438-441. doi.org/10.1038/nchembio0807-438 2. Yasgar A, Shinn P, Jadhav A, Auld DS, Michael S, Zheng W, Austin CP, Inglese J and Simeonov A, Compound Management for Quantitative High-Throughput Screening. J. Assoc. Lab. Auto., 2008, 13: 79-89. doi: 10.1016/j.jala.2007.12.004
On the % scale 0 is the no-effect control and ±100 the full control effect.

| SMILES | activity change, negative = cytotoxicity |
| --- | --- |
| COc1ccc(-n2nc(C(=O)N3CCCC(C)C3)c3c4ccccc4n(C)c3c2=O)cc1Cl (stereo not drawn) | inactive: -1.85% |
| CCOC(=O)c1ccc(NC(=O)CSc2c3c(nc4cc(Cl)ccc24)CCCC3)cc1 | inactive: 9.86% |
| COc1cc(OC)c(NC(=O)CCCn2nc(C)c3c(C)n(-c4ccccc4)nc3c2=O)cc1Cl | inactive: -25.5% |
| Cc1ccc(N2CCn3c2nc2c3c(=O)n(CCCc3ccccc3)c(=O)n2C)cc1C | inactive: 6.08% |
| CCN(CC)c1nc2ccccc2nc1C(=O)Nc1cc(OC)c(OC)c(OC)c1 | inactive: -24.6% |
| O=C(NC1CC(=O)N(c2ccccc2)C1)c1ccc(S(=O)(=O)N2CCCCC2)cc1 (stereo not drawn) | inactive: 5.62% |
| Cc1nn2c(C)c(C(=O)NCc3ccco3)cnc2c1-c1ccccc1 | inactive: -0.227% |
| Cc1nn(C(=O)c2ccc(Cl)cc2)c(C)c1S(=O)(=O)N1CCCCCC1 | inactive: 0.731% |
| O=C(NCCc1ccccc1Cl)c1sc2ncccc2c1-n1cccc1 | inactive: -15.8% |
| CCC(=O)N1c2ccccc2CC1C(=O)NCCc1ccccc1 (stereo not drawn) | inactive: -3.04% |
| CC(C)CCNC(=O)c1cc2cc(S(=O)(=O)N3CCCCC3)ccc2n1C | inactive: 0.53% |
| Cn1c(=O)oc2cc(S(=O)(=O)N3CCCC(C(=O)NCc4ccc(F)cc4)C3)ccc21 (stereo not drawn) | inactive: -2.1% |
| CC1=C(C(N)=O)C(c2ccccc2Br)n2ncnc2N1 (stereo not drawn) | inactive: -0.987% |
| O=C(NCc1ccccc1Br)c1cnc2sc(N3CCCCCC3)nn2c1=O | inactive: 10.9% |
| CCC(=O)Nc1ccccc1-c1nc2ccccc2n(CC(=O)c2ccc(C)cc2)c1=O | inactive: 10.1% |
| CSc1ncc(Cl)c(C(=O)Nc2c(C(=O)Nc3cccc(Cl)c3)oc3ccccc23)n1 | inactive: -2.1% |
| Cc1ccc(N2CCN(C(=O)c3cnc(N4CCCCC4)c4ccccc34)CC2)c(C)c1 | inactive: -29.4% |
| COc1ccc(CNC(=O)CCCN2C(=O)COc3ccc(C)cc32)cc1 | inactive: 0.315% |
| COc1cccc(Cn2nnc3c(=O)[nH]c(C4CCN(C(=O)c5ccccc5Cl)CC4)nc32)c1 | inactive: -26.9% |
| COc1ccc2oc(=O)c(C(=O)NCCc3c(C)[nH]c4ccc(F)cc34)cc2c1 | inactive: 4.8% |
| COCCNc1oc(-c2ccccc2)nc1S(=O)(=O)c1ccc(Br)cc1 | inactive: 4.78% |
| CCCCN(CC)CCCNC(=O)c1cc2c(=O)[nH]c3ccccc3c2n1C | inactive: -2.84% |
| COc1ccc(NC(=O)CCCSc2nc(-c3ccco3)cc(C(F)(F)F)n2)cc1OC | inactive: -9.59% |
| CCc1ccc(-c2cn3c(n2)sc2cc(C(=O)NC4CCCCC4)ccc23)cc1 | inactive: 8.73% |

| SMILES | activity change, negative = cytotoxicity |
| --- | --- |
| COc1cccc(-c2nc(S(=O)(=O)c3ccc(Cl)cc3)c(NCc3ccccc3)o2)c1 | inactive: 8.13% |
| COc1cccc(C(=O)Nc2cccc(OCc3cc(=O)n4c5c(sc4n3)CCCC5)c2)c1 | inactive: 4.72% |
| CC(=O)Nc1ccc(NS(=O)(=O)c2c(C(=O)N3CCC(C)CC3)c(C)n(C)c2C)cc1 | inactive: 4.37% |
| Cc1nn(S(=O)(=O)c2ccc(Br)cc2)c(C)c1S(=O)(=O)N1CCCCCC1 | inactive: 7.35% |
| Cc1cc(C)cc(NC(=O)CCS(=O)(=O)c2cccc3nsnc23)c1 | inactive: 5.84% |
| COc1cccc(Cn2c(Oc3cc(C)cc(C)c3)nc3c2c(=O)n(C)c(=O)n3C)c1 | inactive: -1.96% |
| CCc1ccc(N(CC)C(=O)c2cc3c(=O)oc4ccc(C)cc4c3s2)cc1 | inactive: 8.84% |
| COc1cccc(NC(=O)C(=O)NCC(c2ccc3c(c2)OCO3)N2CCN(C)CC2)c1 (stereo not drawn) | inactive: -25.9% |
| Cc1cccc(C)c1Nc1nn2c(=O)c3cc4c(cc3nc2s1)OCO4 | inactive: 10.8% |
| CC(=O)c1ccc(NS(=O)(=O)c2cccc(S(=O)(=O)c3ccc(Cl)cc3)c2)cc1 | inactive: -1.7% |
| CCCC(=O)Nc1ccccc1OCc1cc(=O)n2cc(C)ccc2n1 | inactive: 8.59% |
| Cc1ccc(CCNC(=O)c2ccc3c(Cl)c4c(nc3c2)CCCC4)cc1 | inactive: 26.2% |
| Cc1ccc(C)c(N2CCN(c3c(CN4CCCC4)c(=O)oc4ccccc34)CC2)c1 | inactive: 2.27% |
| COc1ccccc1CNC(=O)c1ccc2nc(N3CCCCC3)sc2c1 | inactive: 4.34% |
| CCC1CN(C(=O)N2CCC(C(=O)Nc3ccccc3F)CC2)c2ccccc2O1 (stereo not drawn) | inactive: -0.958% |
| O=C(Nc1cccc(Cl)c1Cl)c1cc(S(=O)(=O)NCc2ccc3c(c2)OCO3)ccc1F | inactive: -1.48% |
| Cc1ccc(-n2c(=O)cc(N3CCN(c4ccccc4Cl)CC3)[nH]c2=O)cc1 | inactive: -4.55% |
| CN(C)c1ccc(C(CNC(=O)c2ccccc2C(F)(F)F)N2CCOCC2)cc1 (stereo not drawn) | inactive: 12.9% |
| CCCCSc1nnc2c(n1)OC(c1ccc(Br)s1)N(C(C)=O)c1ccccc1-2 (stereo not drawn) | inactive: -0.544% |
| Cc1ccc(CN2CCCN(CC(=O)Nc3ccc(C)cc3C)S2(=O)=O)cc1 | inactive: -0.701% |
| Cc1c(C(=O)Nc2ccc(C(=O)O)cc2)nnn1-c1ccccc1 | inactive: -4.77% |
| CSc1ccc(CCNC(=O)Cn2ccc3cc(S(=O)(=O)N4CCCCCC4)ccc32)cc1 | inactive: -0.847% |
| O=C(Nc1nc2n(n1)C(c1ccc(F)cc1)C=C(c1ccccc1)N2)c1ccco1 (stereo not drawn) | inactive: -23.2% |
| O=c1c(-c2cc(-c3ccccc3)nc3c2COc2ccc(Cl)cc2-3)coc2ccc(F)cc12 | inactive: 11.2% |
